Hit rate of the full screen: of about 310,000 compounds, about 2,200 (0.71%) showed an effect of 50% or more. The effect is printed as a negative number. Some of the results follow.
molecular target: human ether-à-go-go-related gene (hERG) potassium channel (human, UniProt Q12809); assay: primary screen, population patch clamp on CHO cells stably expressing hERG
Sequence (Q12809 whole entry, looked up): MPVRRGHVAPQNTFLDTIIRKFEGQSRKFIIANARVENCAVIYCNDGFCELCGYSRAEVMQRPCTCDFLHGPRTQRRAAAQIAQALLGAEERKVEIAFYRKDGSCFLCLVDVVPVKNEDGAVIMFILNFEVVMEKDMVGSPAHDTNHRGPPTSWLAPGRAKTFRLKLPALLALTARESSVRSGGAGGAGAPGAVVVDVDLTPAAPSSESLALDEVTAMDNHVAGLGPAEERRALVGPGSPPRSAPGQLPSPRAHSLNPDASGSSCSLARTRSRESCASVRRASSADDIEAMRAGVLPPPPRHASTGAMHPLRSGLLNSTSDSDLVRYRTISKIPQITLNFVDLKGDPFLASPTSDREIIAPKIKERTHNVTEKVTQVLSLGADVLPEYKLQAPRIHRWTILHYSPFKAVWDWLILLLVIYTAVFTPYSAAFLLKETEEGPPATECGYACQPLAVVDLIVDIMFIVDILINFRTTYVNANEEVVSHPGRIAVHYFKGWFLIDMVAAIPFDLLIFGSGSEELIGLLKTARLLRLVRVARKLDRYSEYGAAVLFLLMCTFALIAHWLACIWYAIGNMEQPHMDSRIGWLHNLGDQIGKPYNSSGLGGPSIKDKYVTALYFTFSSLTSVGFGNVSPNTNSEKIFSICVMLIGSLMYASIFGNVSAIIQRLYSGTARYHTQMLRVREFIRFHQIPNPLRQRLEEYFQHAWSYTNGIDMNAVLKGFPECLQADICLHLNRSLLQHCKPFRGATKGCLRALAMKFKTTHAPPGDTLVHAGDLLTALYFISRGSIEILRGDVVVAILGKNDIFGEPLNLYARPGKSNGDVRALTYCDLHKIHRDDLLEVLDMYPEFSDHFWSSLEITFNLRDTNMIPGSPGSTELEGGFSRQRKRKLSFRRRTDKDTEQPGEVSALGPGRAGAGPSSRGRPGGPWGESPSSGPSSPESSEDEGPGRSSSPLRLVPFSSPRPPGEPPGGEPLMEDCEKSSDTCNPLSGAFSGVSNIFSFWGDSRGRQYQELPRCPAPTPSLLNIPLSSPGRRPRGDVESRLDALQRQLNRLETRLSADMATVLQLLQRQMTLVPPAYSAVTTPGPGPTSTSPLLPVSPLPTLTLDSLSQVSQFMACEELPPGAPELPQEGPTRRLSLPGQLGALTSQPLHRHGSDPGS

Row | Compound | hERG current change (%, negative = inhibition) at 1uM
1 | CCc1ccccc1NC(=O)CN1CCN(C(=O)c2cccc(-n3cnnn3)c2)CC1 | -5.51%
2 | O=[N+]([O-])c1cccc(CSc2nc3ccccc3[nH]2)c1 | -3.99%
3 | CN(C)N1C(=O)CC(C)(c2ccc([N+](=O)[O-])cc2)C1=O (stereo not shown) | 6.35%
4 | CCn1c(SCC(=O)Nc2ccc3c(c2)OCCO3)nnc1-c1cccnc1 | 15.8%
5 | O=C(COC(=O)COc1ccc(Br)cc1)Nc1cccnc1Cl | 14.9%
6 | Cn1c(N2CCN(c3ccccn3)CC2)nc2c1c(=O)n(Cc1ccccc1Cl)c(=O)n2C | 12.5%
7 | O=C1NC(=O)C(CCc2ccncc2)(CCc2ccncc2)C(=O)N1Cc1ccc(F)cc1 | -78.2%
8 | COc1cccc2cc(C(=O)N3CCc4ccccc4C3)c(=O)oc12 | 14.7%
9 | O=C(C1CC(c2ccc(F)cc2)=NO1)N1CCCCC1 (stereo not shown) | 3.93%
10 | COc1ccc2nc(NC3=NCCN3)sc2c1 | 10.9%
11 | COc1ccccc1OCc1n[nH]c(=S)n1Cc1ccccc1 | 14.8%
12 | Nc1ccc(NC(=O)c2cccs2)cc1 | 16.9%
13 | COc1ccc(CCNC(=O)CCC(=O)N2CCOc3ccccc32)cc1OC | -5.86%
14 | CC(=O)Nc1cccc(C(=O)NC2CCCc3c2cnn3-c2ccc(C(C)(C)C)cc2)c1 (stereo not shown) | 13%
15 | COc1ccc(Br)cc1/C=C(\C(=O)O)c1ccc(S(=O)(=O)N2CCCCC2)s1 | 5.43%
16 | CC(C)c1ccccc1NC(=O)Nc1ccc(F)cc1F | 8.94%
17 | CC(=O)N(CCc1ccccc1)Cc1cc2cc(C)ccc2[nH]c1=O | 4.22%
18 | CC1CC1C(=O)NCCc1ccc(Cl)cc1 (stereo not shown) | 0.111%
19 | COC(=O)c1ccc(C2CC(=O)Nc3cc(OC)c(OC)cc32)cc1 (stereo not shown) | 1.14%
20 | O=C(CN1CCC(NC(=O)Nc2ccccc2)CC1)Nc1ccc([N+](=O)[O-])cc1 | -9.75%
21 | O=C(Nc1sc(-c2ccccc2)cc1C(=O)O)c1ccccc1 | 14.5%
22 | CC1C(OC(=O)CCC(=O)NC(C)(C)CO)O[C@H]2OC3(C)CC[C@H]4[C@H](C)CCC1C24OO3 (stereo partly shown) | 14.3%

Row | Compound | hERG current change (%, negative = inhibition) at 1uM
23 | CCCCCCC(=O)Oc1cccc(N2C(=O)C3CCCCC3C2=O)c1 (stereo not shown) | 11.8%
24 | CCCCC/C=C\C[C@H](O)/C=C/c1cccc(C[C@H](O)CCCCO)n1 | 11.2%
25 | O=C(CCN1C(=O)c2ccccc2C1=O)N1CCN(Cc2ccccc2)CC1 | 7.1%
26 | CC(=O)NC(CC(=O)N(C)Cc1c(F)cccc1Cl)c1ccccc1 (stereo not shown) | 11.9%
27 | O=C(COC(=O)CCCNC(=O)c1ccc(Cl)cc1)NC1CC1 | 13%
28 | CNC(=O)c1[nH]cnc1C(=O)N[C@@H](CCCCNC(=O)OC(C)(C)C)C(=O)OC(C)(C)C | 13.6%
29 | CCOC(=O)CC(=O)CSc1ncnc2c1cnn2-c1ccccc1 | 6.25%
30 | CCNC(=O)C1CC(=O)N(Cc2ccc3c(c2)OCO3)C(=Nc2ccc(F)cc2)S1 (stereo not shown) | 11.6%
31 | Nc1cc(Cl)ccc1Nc1ccncc1 | 7.92%
32 | Cc1cccc(S(=O)(=O)N2CCC(CO)(Cc3ccccc3)CC2)c1 | 10.3%
33 | CC1=CC2=NC(=O)/C(=C\c3cccn3CCOc3cccc(C)c3)C(=N)N2O1 | 13.7%
34 | CCc1ccc(-n2c(=O)c3c(C)c(C)sc3n(CC(=O)NCC3CCCO3)c2=O)cc1 (stereo not shown) | 6.87%
35 | COc1cc2c(cc1NC(=O)C(C)OC(=O)C1CC(=O)N(Cc3ccco3)C1)oc1ccccc12 (stereo not shown) | 13.5%
36 | Cc1ccc(S(=O)(=O)N2CCN(Cc3nc4sc5c(c4c(=O)[nH]3)CCCC5)CC2)cc1 | 8.82%
37 | O=C(CSc1ncn(-c2ccccc2)n1)N1CCN(c2ccccc2)CC1 | 4.85%
38 | CCCCN(C)C(=O)c1ccc2c(c1)S(=O)(=O)c1ccccc1C2=O | 2.56%
39 | Cc1cccn2cc(-c3cccc(S(=O)(=O)N4CC(C)OC(C)C4)c3)nc12 (stereo not shown) | 20.8%
40 | COc1ccccc1-c1oc2ccccc2c1-c1ccc2cc[nH]c2c1 | 11.6%
41 | CN1C(=O)CCC1(O)c1ccccc1 (stereo not shown) | 5.04%
42 | CCOC(=O)c1ccc(NC(=O)CCS(=O)(=O)Cc2ccccc2)cc1 | 10.8%
43 | CCn1nc(NC(=O)COC)c2cc3cccc(C)c3nc21 | 11.8%
44 | CC1Cc2ccccc2N1C(=O)CSc1nnc(CSc2ncccn2)n1C (stereo not shown) | -9.35%

Row | Compound | hERG current change (%, negative = inhibition) at 1uM
45 | CN(C)c1ccc(C2(O)C(=O)c3ccccc3C2=O)cc1 | 12.5%
46 | O=C(CCn1c(=O)[nH]c2ccsc2c1=O)N1CCN(c2cccc(Cl)c2)CC1 | -6.52%
47 | OCCC1CN(Cc2cn[nH]c2C2CCCCC2)CCN1C1CCCCC1 (stereo not shown) | 7.95%
48 | C[C@H]1C(=O)N(C)CCN1C(=O)c1cccc(OC2CCN(CC(C)(C)C)CC2)c1 | 16.6%
49 | CCOc1ccc(S(=O)(=O)N2CCCC(C(=O)NCc3ccccc3)C2)cc1 (stereo not shown) | 3.16%
50 | COc1cc(NC(=O)CN(C)Cc2cccc(F)c2)c(C)cc1[N+](=O)[O-] | 18.1%
51 | CCCCn1nnnc1SCC(=O)NC1CCCCC1 | 17.6%
52 | CC(C)(C)c1ccc(OCC(=O)NCCN2CCCC2)cc1.Cl | 0.612%
53 | Cc1c(NC(=O)c2cccc(NC(=O)COc3ccccc3)c2)c(=O)n(-c2ccccc2)n1C | 16.1%
54 | COc1ccc(NC(=O)CNC(=O)c2sc3ccccc3c2Cl)c(OC)c1 | 7.35%
55 | COc1cccc(C=N[C@@H](CO)[C@@H](O)c2ccc([N+](=O)[O-])cc2)c1O | 5.58%
56 | Cc1cc(C(=O)OCC(=O)N(C)C2CCS(=O)(=O)C2)c(C)n1-c1ccccc1 (stereo not shown) | 6.27%
57 | COc1ccc(-n2c(=O)[nH]cc(C(=O)Nc3ccc4c(c3)OCCO4)c2=O)cc1OC | -4.94%
58 | CC(C)(C)c1ccc(OCCC(=O)OCC(=O)NC2CCCCC2)cc1 | 3.52%
59 | COc1cc(C2Nc3ccc4ncccc4c3C3=C2C(=O)CCC3)ccc1O (stereo not shown) | 16.9%
60 | CC(=O)OCC1=C(C(=O)O)N2C(=O)C(NC(=O)Cn3nc(C(F)F)c(Cl)c3C)C2SC1 (stereo not shown) | 8.75%
61 | Cc1ccc(S(=O)(=O)CCc2nnc(NC(=O)C3CCCO3)s2)cc1 (stereo not shown) | 12%
62 | CC(C)C(OC(=O)c1cccc(S(=O)(=O)NCC(F)(F)F)c1)C(=O)NC(N)=O (stereo not shown) | 9.33%
63 | S=c1[nH]nc(-c2ccccc2)n1/N=C/c1cccc(Br)c1 | 18.7%
64 | CNC(=O)COC(=O)c1cc(NC(=O)c2ccco2)c(OC)c(OC)c1 | 7.36%
65 | Cc1ccccc1NC(=S)N(CCN(C)C)C(C)c1ccco1 (stereo not shown) | 4.64%
66 | Cc1ccccc1S(=O)(=O)N1CC(C(=O)O)=CC[C@H]1c1ccc(Cl)cc1 | 17.5%

Row | Compound | hERG current change (%, negative = inhibition) at 1uM
67 | Nc1ccc(S(=O)(=O)Nc2nc3ccccc3o2)cc1 | 16.3%
68 | Cc1nonc1N1CCN(Cc2cn[nH]c2-c2ccc(F)cc2F)CC1 | 8.81%
69 | O=C(COC(=O)CN1C(=O)C2CCCCC2C1=O)NNC(=O)c1ccc(Cl)cc1 (stereo not shown) | 15.3%
70 | CC(C)N(CC#CCC(O)(c1ccccc1)C1CCCC1)CCO (stereo not shown) | -0.869%
71 | Cc1cccc(NC(=O)NCc2ccccn2)c1 | 7.83%
72 | CC1=CCC(C(=O)O)(C(=O)N/N=C/c2cccs2)C(c2ccc(Cl)cc2)C1 (stereo not shown) | -7.18%
73 | O=C(c1ccc([N+](=O)[O-])o1)N1CCc2ccccc2C1 | 4.04%
74 | COc1ccc(N=NC2=C(O)CC(C)(C)CC2=O)cc1 | 3.63%
75 | COc1ccc(NC(=O)c2ccc(NC(=O)c3ccncc3)cc2)cc1 | 19.3%
76 | COc1ccc(OCC(=O)OCC(=O)NC2CC2)cc1 | 17.3%
77 | CN1C(=S)N2CCCN2C1c1ccccc1 (stereo not shown) | 4.36%
78 | CSc1nnc2c(n1)[nH]c1c(C)cccc12 | 6.15%
79 | COCCN(Cc1cc2cccc(C)c2n2nnnc12)C(=O)C(F)(F)F | 2.16%
80 | Cc1noc(C)c1C(=O)NC(C)C1CCCO1 (stereo not shown) | 8.83%
81 | CN(C)C(=O)c1cn(-c2ccccc2)nc1-c1cc2ccccc2o1 | 4.33%
82 | Cc1cccc2sc(NC(=O)[C@@H]3CCCN3C(=O)c3cccs3)nc12 | 12.1%
83 | CC(C)Cn1c(N)c(C(=O)COC(=O)CCc2nc3ccccc3s2)c(=O)n(C)c1=O | -9.57%
84 | COc1cccc(-c2nn(-c3ccccc3)cc2CN(C)Cc2c(C)nc3ccccn23)c1 | 2.41%
85 | CCOc1ccc(N2CC(C(=O)Nc3cc(Cl)ccc3-n3cncn3)CC2=O)cc1 (stereo not shown) | -25.8%
86 | O=C(COC(=O)CNC(=O)c1ccc(Cl)cc1Cl)Nc1cccc(S(=O)(=O)N2CCCC2)c1 | 9.95%
87 | CC1CCCCC1NC(=O)c1nn(C)c(=O)c2ccccc12 (stereo not shown) | 2.67%
88 | O=C(CSc1nnc(-c2ccccc2)o1)NC1CCCC1 | -3.97%

Source: paper PMC4336329 (PLoS ONE, 2015)
